The experiment addresses T1, human VEGFA (human, UniProt P15692).
T1 chain: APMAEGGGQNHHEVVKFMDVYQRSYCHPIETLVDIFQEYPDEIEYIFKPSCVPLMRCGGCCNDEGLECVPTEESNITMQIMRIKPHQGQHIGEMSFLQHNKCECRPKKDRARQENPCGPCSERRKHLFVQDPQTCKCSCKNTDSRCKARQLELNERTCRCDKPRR
Briefly: SPR. In general terms: In SPR one partner is held on a chip, and binding of the other changes the refractive index at the surface.

B1: human PD-1 (protein)
chain: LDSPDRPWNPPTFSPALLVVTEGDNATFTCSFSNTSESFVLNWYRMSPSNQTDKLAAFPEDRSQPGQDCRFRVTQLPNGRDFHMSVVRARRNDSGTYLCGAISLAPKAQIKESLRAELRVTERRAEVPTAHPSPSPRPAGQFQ
For the molecule B1, the binding result is reported as “no binding”.
